Values marked as one replicate rest on one cluster of the flow cell; about a third of the high ones do not repeat.
test system: ATP; experiment: switch fluorescence ratio, 500 uM ATP over buffer (Cy3 cluster intensity, sum of 5 cycles each) (fold (ratio)); higher = stronger signal-on switching upon ATP binding; sequences stand for … in TCGTCGGCAGCGTCAGATGTGTATAAGAGACAGTTTTTTTTTTTTTTTTTTTTTTTTT…TC; settings: aptamer strand: ATP DNA aptamer (quencher-CACCTGGGGGAGTATTGCGGAGGAAGG + anchor), 100 nM annealed; ATP concentration: 500 uM; one replicate
Summary of the method: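 Values give the fluorescence ratio for each switch-domain sequence, averaged from per-cluster ratios of summed target-cycle to summed buffer-cycle Cy3 intensity. The Cy3-labelled switching-strand clusters sat on a modified Illumina MiSeq flow-cell, were annealed to 100 nM quencher-labelled ATP aptamer, and were imaged in selection buffer, then after 15 min with 500 uM ATP at 22 °C. Five cycles ran with NaOH stripping and re-annealing between them, and clusters outside 100-1000 RFU were excluded.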
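Also: ATP exposure 15 min at 22 °C before imaging.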

Q: How did the switch fluorescence ratio turn out when GGATTCACAG was run?
A: 1.03

Q: For GGATTCATAG, which switch fluorescence ratio is on record?
A: 1.02

Q: How did the switch fluorescence ratio turn out when GGATTCCCTG was run?
A: 1.02

Q: For GGATTCGTCT, which switch fluorescence ratio is on record?
A: 0.898

Q: With GGATTGATAA as the sequence, how does the switch fluorescence ratio read?
A: 0.987

Q: Which switch fluorescence ratio does the source give for GGATTGGACC here?
A: 1.03

Q: With GGATTGTAGC as the sequence, how does the switch fluorescence ratio read?
A: 0.99

Q: With GGATTTAGCG as the sequence, how does the switch fluorescence ratio read?
A: 0.971

Q: GGATTTCATA was tested. Which switch fluorescence ratio did it give?
A: 0.994

Q: How did the switch fluorescence ratio turn out when GGATTTGCGT was run?
A: 1

Q: How did the switch fluorescence ratio turn out when GGCAAAAGTC was run?
A: 0.965

Q: With GGCAAACTTG as the sequence, how does the switch fluorescence ratio read?
A: 1.02

Q: With GGCAACCCGG as the sequence, how does the switch fluorescence ratio read?
A: 1.02

Q: For GGCAACCTCC, which switch fluorescence ratio is on record?
A: 2.17

Q: For GGCAAGTAGG, which switch fluorescence ratio is on record?
A: 1

Q: With GGCAATAGGA as the sequence, how does the switch fluorescence ratio read?
A: 1.24

Q: Which switch fluorescence ratio does the source give for GGCAATGTAC here?
A: 3.37

Q: GGCAATTCCT was tested. Which switch fluorescence ratio did it give?
A: 1.16

Q: For GGCACAAAGA, which switch fluorescence ratio is on record?
A: 0.994

Q: How did the switch fluorescence ratio turn out when GGCACGTCAG was run?
A: 1.01

Q: Which switch fluorescence ratio does the source give for GGCAGACATT here?
A: 1.02

Q: With GGCAGAGTGC as the sequence, how does the switch fluorescence ratio read?
A: 1.14

Q: With GGCAGAGTTT as the sequence, how does the switch fluorescence ratio read?
A: 1.01

Q: GGCAGCGGGT was tested. Which switch fluorescence ratio did it give?
A: 0.981

Q: How did the switch fluorescence ratio turn out when GGCAGGCCAG was run?
A: 1.06

Q: For GGCAGGTGAC, which switch fluorescence ratio is on record?
A: 1.28

Q: For GGCAGTGGTC, which switch fluorescence ratio is on record?
A: 0.984

Q: Which switch fluorescence ratio does the source give for GGCAGTTAT here?
A: 0.999

Q: Which switch fluorescence ratio does the source give for GGCATACAGG here?
A: 1.02

Q: With GGCATATCTG as the sequence, how does the switch fluorescence ratio read?
A: 0.976

Q: GGCATCCTG was tested. Which switch fluorescence ratio did it give?
A: 0.967

Q: For GGCATCGCTT, which switch fluorescence ratio is on record?
A: 1.06

Q: For GGCATCTTTT, which switch fluorescence ratio is on record?
A: 1.04

Q: With GGCATGACGC as the sequence, how does the switch fluorescence ratio read?
A: 1.01

Q: How did the switch fluorescence ratio turn out when GGCATGATGG was run?
A: 0.969

Q: GGCATGGTCG was tested. Which switch fluorescence ratio did it give?
A: 1.01

Q: For GGCATTATGG, which switch fluorescence ratio is on record?
A: 0.999

Q: How did the switch fluorescence ratio turn out when GGCCAATAGT was run?
A: 1.02

Q: GGCCAATTCA was tested. Which switch fluorescence ratio did it give?
A: 0.983

Q: With GGCCAATTTT as the sequence, how does the switch fluorescence ratio read?
A: 1.03

Q: How did the switch fluorescence ratio turn out when GGCCACCCTG was run?
A: 1

Q: For GGCCAGAGAA, which switch fluorescence ratio is on record?
A: 1.03

Q: With GGCCAGTAAG as the sequence, how does the switch fluorescence ratio read?
A: 1.04

Q: GGCCATACAT was tested. Which switch fluorescence ratio did it give?
A: 0.993

Q: How did the switch fluorescence ratio turn out when GGCCATATAT was run?
A: 0.989

Q: With GGCCATGCCT as the sequence, how does the switch fluorescence ratio read?
A: 0.974

Q: Which switch fluorescence ratio does the source give for GGCCATTACC here?
A: 1.07

Q: How did the switch fluorescence ratio turn out when GGCCCAGGGG was run?
A: 1.03

Q: For GGCCCATGAT, which switch fluorescence ratio is on record?
A: 1.02

Q: GGCCCCAAAA was tested. Which switch fluorescence ratio did it give?
A: 1.28

Q: For GGCCCCCGCT, which switch fluorescence ratio is on record?
A: 1.12

Q: With GGCCCGGATT as the sequence, how does the switch fluorescence ratio read?
A: 1.05

Q: Which switch fluorescence ratio does the source give for GGCCCTGTGT here?
A: 1.08

Q: GGCCCTGTTG was tested. Which switch fluorescence ratio did it give?
A: 1.02

Q: How did the switch fluorescence ratio turn out when GGCCCTTAGA was run?
A: 0.987

Q: For GGCCGATTGC, which switch fluorescence ratio is on record?
A: 1.06

Q: GGCCGCGCCG was tested. Which switch fluorescence ratio did it give?
A: 0.998

Q: GGCCGGAGTA was tested. Which switch fluorescence ratio did it give?
A: 1.04

Q: With GGCCGTGTTA as the sequence, how does the switch fluorescence ratio read?
A: 0.992

Q: How did the switch fluorescence ratio turn out when GGCCGTTGTT was run?
A: 1

Q: How did the switch fluorescence ratio turn out when GGCCTACGCT was run?
A: 1.58

Q: Which switch fluorescence ratio does the source give for GGCCTACGGA here?
A: 0.994

Q: For GGCCTCCTGC, which switch fluorescence ratio is on record?
A: 1.05

Q: How did the switch fluorescence ratio turn out when GGCCTGATGA was run?
A: 0.995

Q: For GGCCTGCCTT, which switch fluorescence ratio is on record?
A: 0.997

Q: For GGCCTGTAAC, which switch fluorescence ratio is on record?
A: 1.05

Q: How did the switch fluorescence ratio turn out when GGCCTTACGC was run?
A: 1.05

Q: For GGCCTTCATG, which switch fluorescence ratio is on record?
A: 1.01

Q: Which switch fluorescence ratio does the source give for GGCCTTGCCC here?
A: 1.01

Q: For GGCCTTGTTT, which switch fluorescence ratio is on record?
A: 0.967

Q: For GGCCTTTAGA, which switch fluorescence ratio is on record?
A: 0.989

Q: Which switch fluorescence ratio does the source give for GGCGAATGA here?
A: 1

Q: For GGCGAATTAA, which switch fluorescence ratio is on record?
A: 1.05

Q: How did the switch fluorescence ratio turn out when GGCGACCGAC was run?
A: 1.24

Q: Which switch fluorescence ratio does the source give for GGCGACGTAT here?
A: 1.02

Q: Which switch fluorescence ratio does the source give for GGCGACTCTG here?
A: 1

Q: For GGCGAGACCC, which switch fluorescence ratio is on record?
A: 1.09

Q: GGCGAGCCAG was tested. Which switch fluorescence ratio did it give?
A: 1.04

Q: With GGCGAGGGA as the sequence, how does the switch fluorescence ratio read?
A: 1.01

Q: Which switch fluorescence ratio does the source give for GGCGAGTTTG here?
A: 1

Q: Which switch fluorescence ratio does the source give for GGCGATAAGA here?
A: 0.98

Q: With GGCGATAGTC as the sequence, how does the switch fluorescence ratio read?
A: 1.07

Q: With GGCGATGGGA as the sequence, how does the switch fluorescence ratio read?
A: 1.04

Q: How did the switch fluorescence ratio turn out when GGCGATTGTT was run?
A: 0.984

Q: GGCGCAAGAA was tested. Which switch fluorescence ratio did it give?
A: 1.02

Q: GGCGCCGGG was tested. Which switch fluorescence ratio did it give?
A: 1

Q: Which switch fluorescence ratio does the source give for GGCGCGAGTG here?
A: 0.945

Q: With GGCGCGTGCC as the sequence, how does the switch fluorescence ratio read?
A: 0.97

Q: For GGCGCTACCA, which switch fluorescence ratio is on record?
A: 1

Q: GGCGCTAGCT was tested. Which switch fluorescence ratio did it give?
A: 1.07

Q: With GGCGGAATGA as the sequence, how does the switch fluorescence ratio read?
A: 1.04

Q: Which switch fluorescence ratio does the source give for GGCGGAGATT here?
A: 1

Q: Which switch fluorescence ratio does the source give for GGCGGCCTTT here?
A: 0.966

Q: How did the switch fluorescence ratio turn out when GGCGGCGGTG was run?
A: 0.997

Q: How did the switch fluorescence ratio turn out when GGCGGGAGTT was run?
A: 1.02

Q: For GGCGGGGATG, which switch fluorescence ratio is on record?
A: 0.98

Q: GGCGGGGATT was tested. Which switch fluorescence ratio did it give?
A: 1.04

Q: GGCGGGGTAT was tested. Which switch fluorescence ratio did it give?
A: 1.14

Q: Which switch fluorescence ratio does the source give for GGCGTACAGC here?
A: 0.979

Q: GGCGTACTCT was tested. Which switch fluorescence ratio did it give?
A: 1.02

Reference: the supplement of paper PMC10126150
